# Measured values taken from the supplement of paper PMC8728848.
# This is one part of the list.
# B1: FaeGac (Escherichia coli) (protein)
# chain: WMTGDFNGSVDIGGSITADDYRQKWEWKVGTGLNGFGNVLNDLTNGGTKLTITVTGNKPILLGRTKEAFATPVTGGVDGIPHIAFTDYEGASVVLRKPDGETNKNGLAYFVLPMKNAGGTKVGSVKVNASYAGVLGRGGVTSADGELLSLFADGLSSIFYGGLPRGSELSAGSAAAARTKLFGSLSRDDILGQIQRVNANVTSLVDVAGSYRENMEYTDGNVVSAAYALGIANGQTIEATFNQAVTTSTQWSAPLNVAITYY
# Columns and labels:
# Test in all cases: glycan array binding signal (z-score within array); higher = stronger binding
# Conditions in all cases: glycan notation: IUPAC condensed, linker removed
# [1] = target: Fuc(a1-2)Gal
# How it was run: (§1)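 Glycan array data came from 3228 arrays in the Consortium for Functional Glycomics database, and only arrays with an available protein sequence were kept. Glycan names were put into IUPAC-condensed notation, and columns mapping to the same glycan were averaged. The binding signal is a within-array Z-score, averaged across arrays of one protein sequence run at different concentrations or buffers and across linkers. A negative Z-score can be read as non-binding.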
# [2] = target: Fuc(a1-2)Gal(b1-3)GalNAc
# How it was run: as §1
# [3] = target: Fuc(a1-2)Gal(b1-3)GalNAc(b1-3)Gal
# How it was run: as §1
# [4] = target: Fuc(a1-2)Gal(b1-3)GalNAc(b1-3)Gal(a1-4)Gal(b1-4)Glc
# How it was run: as §1
# [5] = target: Fuc(a1-2)Gal(b1-3)GalNAc(b1-4)[Neu5Ac(a2-3)]Gal(b1-4)Glc
# How it was run: as §1
# [6] = target: Fuc(a1-2)Gal(b1-3)GlcNAc
# How it was run: as §1
# [7] = target: Fuc(a1-2)Gal(b1-3)GlcNAc(b1-3)Gal(b1-4)Glc
# How it was run: as §1
# [8] = target: Fuc(a1-2)Gal(b1-3)[Fuc(a1-4)]GlcNAc
# How it was run: as §1
# [9] = target: Fuc(a1-2)Gal(b1-4)Glc
# How it was run: as §1
# [10] = target: Fuc(a1-2)Gal(b1-4)GlcNAc
# How it was run: as §1
# [11] = target: Fuc(a1-2)Gal(b1-4)GlcNAc(b1-3)Gal(b1-4)GlcNAc
# How it was run: as §1
# [12] = target: Fuc(a1-2)Gal(b1-4)GlcNAc(b1-3)Gal(b1-4)GlcNAc(b1-3)Gal(b1-4)GlcNAc
# How it was run: as §1
# [13] = target: Fuc(a1-2)Gal(b1-4)[Fuc(a1-3)]GlcNAc
# How it was run: as §1
# [14] = target: Fuc(a1-2)Gal(b1-4)[Fuc(a1-3)]GlcNAc(b1-3)Gal(b1-4)[Fuc(a1-3)]GlcNAc
# How it was run: as §1
# [15] = target: Fuc(a1-2)Gal(b1-4)[Fuc(a1-3)]GlcNAc(b1-3)Gal(b1-4)[Fuc(a1-3)]GlcNAc(b1-3)Gal(b1-4)[Fuc(a1-3)]GlcNAc
# How it was run: as §1
# [16] = target: Fuc(a1-2)GlcNAc
# How it was run: as §1
# [17] = target: Fuc(a1-2)[Gal(a1-3)]Gal
# How it was run: as §1
# [18] = target: Fuc(a1-2)[Gal(a1-3)]Gal(b1-3)GlcNAc
# How it was run: as §1
# [19] = target: Fuc(a1-2)[Gal(a1-3)]Gal(b1-4)Glc
# How it was run: as §1
# [20] = target: Fuc(a1-2)[Gal(a1-3)]Gal(b1-4)GlcNAc
# How it was run: as §1
# [21] = target: Fuc(a1-2)[Gal(a1-3)]Gal(b1-4)[Fuc(a1-3)]GlcNAc
# How it was run: as §1
# [22] = target: Fuc(a1-2)[Gal(a1-4)]Gal(b1-4)GlcNAc
# How it was run: as §1
# [23] = target: Fuc(a1-2)[GalNAc(a1-3)]Gal
# How it was run: as §1
# [24] = target: Fuc(a1-2)[GalNAc(a1-3)]Gal(b1-3)GlcNAc
# How it was run: as §1
# [25] = target: Fuc(a1-2)[GalNAc(a1-3)]Gal(b1-4)Glc
# How it was run: as §1
# [26] = target: Fuc(a1-2)[GalNAc(a1-3)]Gal(b1-4)GlcNAc
# How it was run: as §1
# [27] = target: Fuc(a1-2)[GalNAc(a1-3)]Gal(b1-4)[Fuc(a1-3)]GlcNAc
# How it was run: as §1
# [28] = target: Fuc(a1-2)[GalNAc(a1-4)]Gal(b1-4)GlcNAc
# How it was run: as §1
# [29] = target: Fuc(a1-2)[GalNAc(b1-3)]Gal
# How it was run: as §1
# [30] = target: Fuc(a1-3)GlcNAc
# How it was run: as §1
binder,measurement,setting,value
B1,glycan array binding signal (z-score),[1],-0.594
same,glycan array binding signal (z-score),[2],-0.804
same,glycan array binding signal (z-score),[3],-0.477
same,glycan array binding signal (z-score),[4],2.33
same,glycan array binding signal (z-score),[5],-0.669
same,glycan array binding signal (z-score),[6],-0.857
same,glycan array binding signal (z-score),[7],-0.584
same,glycan array binding signal (z-score),[8],-0.258
same,glycan array binding signal (z-score),[9],-0.709
same,glycan array binding signal (z-score),[10],-0.638
same,glycan array binding signal (z-score),[11],0.856
same,glycan array binding signal (z-score),[12],0.112
same,glycan array binding signal (z-score),[13],-0.41
same,glycan array binding signal (z-score),[14],-0.232
same,glycan array binding signal (z-score),[15],0.118
same,glycan array binding signal (z-score),[16],-0.655
same,glycan array binding signal (z-score),[17],-0.887
same,glycan array binding signal (z-score),[18],-0.887
same,glycan array binding signal (z-score),[19],0.407
same,glycan array binding signal (z-score),[20],-0.879
same,glycan array binding signal (z-score),[21],-0.768
same,glycan array binding signal (z-score),[22],0.005
same,glycan array binding signal (z-score),[23],-0.835
same,glycan array binding signal (z-score),[24],-0.94
same,glycan array binding signal (z-score),[25],-0.557
same,glycan array binding signal (z-score),[26],-0.718
same,glycan array binding signal (z-score),[27],-0.944
same,glycan array binding signal (z-score),[28],-0.199
same,glycan array binding signal (z-score),[29],-0.328
same,glycan array binding signal (z-score),[30],1.05
